Data taken from PubChem BioAssay AID924 (National Center for Advancing Translational Sciences (NCATS), 2007).
Out of some 130,000 compounds screened, about 1,200 (0.92%) were called active. Inconclusive results, whose numbers are uncertain, are shown with a selection of clear calls. Calls come from the whole dose curve; as a rule, active = well fitted cell-killing curve with a large enough effect; inconclusive = small, poorly fitted or top-dose-only effect; inactive = no such curve, though single readings can be large or run the other way. Potencies of inconclusive entries are doubtful fits and often do not repeat.

Assay: qHTS Screen for Compounds that Selectively Target Cancer Cells with p53 Mutations: Cytotoxicity of p53ts Cells at the Permissive Temperature; note: nearly all actives have a fitted effect of over 55% in size
Details: H1299-p53A138V at 32C, ATP luminescence viability, 24 h; series mostly up to 46.1 µM
Summary of the method: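 Cells: H1299 p53ts (A138V), 600/well, pre-incubated 16–30 h at 37C. Cpd up to 46 uM, 24 h, 32C. Readout: ATPlite luminescence, 20 min RT. Normalization: DMSO vs tamoxifen 100 uM. AC50 by Hill equation.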
Potency is the fitted concentration of half-maximal effect; tags give direction and shape of the fitted curve.

SMILES | Potency
CCSc1nc2ccc(OC)cc2cc1C#N | inactive
COc1ccc(-c2cc(C(=O)NCCc3ccccc3)c3c(-c4ccccc4)[nH]nc3n2)cc1OC | inconclusive: 10 µM [cytotoxic, partial curve]
O=C(/C=C\c1ccccc1)Nc1nccs1 | inconclusive: 3.16 µM [cytotoxic, full curve, poor fit]
Cn1cccc1C(=O)N1CCC2(CC1)CN(Cc1cc(C(F)(F)F)cc(C(F)(F)F)c1)C2 | inactive
CCOc1ccc(N2C(=O)CC(SCCN)C2=O)cc1 (stereo unspecified) | active: 12.6 µM
CCC(C)NC(=O)CSc1nc2n[nH]c(C)c2c(=N)n1-c1cc(Cl)ccc1C (stereo unspecified) | inconclusive: 14.1 µM [cytotoxic, single point]
O=C(Nc1ccccc1F)c1ccc2c(Cl)c3c(nc2c1)CCC3 | active: 1.26 µM
CC(C)n1cnc2cc(NCc3nc4ccccc4n3C)ccc21 | inconclusive: 12.6 µM [cytotoxic, partial curve]
COc1ccc(-n2ncc3c(NC4CCCC4)ncnc32)cc1 | active: 5.01 µM
CN(C)CCNC(=O)C1CCN(Cc2cc3ccccc3n2Cc2ccccc2)CC1 | inconclusive: 35.5 µM [cytotoxic, single point]
CCNC(=O)CCc1nc(-c2ccc(C(C)(C)C)cc2)no1 | inconclusive: 12.6 µM [cytotoxic, partial curve]
Cc1cccc(NS(=O)(=O)Cc2ccccc2)n1 | inactive
COc1ccc(N2CSC3=C(C#N)C(c4cc(OC)c(OC)cc4OC)CC(=O)N3C2)c(OC)c1 (stereo unspecified) | inactive
Cc1ccccc1Nc1c(-c2ccc(N3CCOCC3)cc2)nc2ccccn12 | active: 1 µM
Clc1ccc(-c2nc(-c3ccccn3)no2)cc1Cl | active: 5.01 µM
Cc1ccccc1N=C1Nc2ccccc2CS1 | inconclusive: 10 µM [cytotoxic, partial curve]
CC(C)C(=O)Nc1cccc(C(=O)Nc2ccc3c(c2)OCO3)c1 | inconclusive: 10 µM [cytotoxic, partial curve]
CCOC(=O)c1nc(S(C)(=O)=O)ncc1Cl | inconclusive: 31.6 µM [cytotoxic, single point]
C[C@@H]1OC(OC2CC[C@@]3(C)C(CC[C@@]4(C)C3CC=C3C5CC(C)(C)CC[C@]5(C(=O)OC5OCC(O)[C@@H](O)[C@@H]5OC5O[C@@H](C)[C@H](O[C@H]6OC(CO)C(O)C(O)C6O)C(O)C5O)C(O)C[C@@]34C)C2(C)C)C(O)C(O)[C@H]1OC1OCC(O)C(O)[C@H]1O (stereo partly specified) | inconclusive: 31.6 µM [cytotoxic, single point]
O=C(Nc1cccc(S(=O)(=O)Nc2ccc(Cl)cc2)c1)c1cc2c(s1)CCCC2 | inconclusive: 28.2 µM [cytotoxic, single point]
CCOC(=O)c1c(C)oc2c(F)c(F)c(F)c(F)c2c1=O | inconclusive: 25.1 µM [cytotoxic, single point]
Clc1ccccc1-c1nc(-c2cccnc2)no1 | active: 10 µM
CCC(C)C(=O)N1CCc2cc(-c3csc(N)n3)ccc21 (stereo unspecified) | active: 10 µM

SMILES | Potency
COc1ccc(OC)c(Nc2cc(-c3ccccc3)nc(N)n2)c1 | inconclusive: 20 µM [cytotoxic, single point]
O=C(CCn1cccc1)NCc1ccc2c(c1)OCO2 | inactive
Cc1c(C(=O)Nc2ccc(C(=O)O)cc2)nnn1-c1ccccc1 | active: 10 µM
O=C(Nc1nc2n(n1)C(c1ccc(F)cc1)C=C(c1ccccc1)N2)c1ccco1 (stereo unspecified) | inactive
O=C(Nc1ccc2c(c1)nc1n2CCOC1)c1ccco1 | active: 7.94 µM
O=C(Nc1nc(=O)c2ccccc2s1)c1ccc(F)cc1 | inactive
O=C(Nc1ccc(OC(=O)c2ccco2)cc1)c1ccco1 | inactive
CCc1ccc(N(CC)C(=O)c2cc3c(=O)oc4ccc(C)cc4c3s2)cc1 | inactive
CCOC(=O)c1ccc(N2C(=O)c3n[nH]c(-c4ccco4)c3C2c2ccc(C)cc2)cc1 (stereo unspecified) | inconclusive: 31.6 µM [cytotoxic, single point]
Cc1nn(S(=O)(=O)c2ccc(Br)cc2)c(C)c1S(=O)(=O)N1CCCCCC1 | inconclusive: 0.158 µM [cytotoxic, full curve, poor fit]
COc1cc(OC)c(NC(=O)CCCn2nc(C)c3c(C)n(-c4ccccc4)nc3c2=O)cc1Cl | inactive
O=C(NCCc1ccccc1Cl)c1sc2ncccc2c1-n1cccc1 | inconclusive: 31.6 µM [cytotoxic, single point]
Cc1cccc(OCC(=O)N(Cc2ccc(C(C)(C)C)cc2)Cc2ccco2)c1 | inconclusive: 14.1 µM [cytotoxic, partial curve]
COc1ccc(NC(=O)C2CCCNC2)cc1OCC(C)C (stereo unspecified) | inactive
COc1ccc(C(=O)N=c2nc3ccccn3s2)cc1 | active: 0.794 µM
Cn1c(C(=O)NCc2ccccc2F)cc2oc3ccccc3c21 | inconclusive: 1.26 µM [cytotoxic, full curve]
CCN(CC)CCCNC(=O)CSc1c2c(nc3cc(Cl)ccc13)CCCC2 | inconclusive: 31.6 µM [cytotoxic, single point]
Cc1ccc(-c2cn3nc(C)c(C)nc3n2)cc1 | inconclusive: 5.01 µM [cytotoxic, partial curve]
Cc1nc2nncn2c(NCc2ccc(Cl)cc2)c1C | inconclusive: 2.24 µM [cytotoxic, full curve, poor fit]
COC(=O)c1c(NC(=O)CN2CCN(Cc3ccc4c(c3)OCO4)CC2)sc(C)c1C | inconclusive: 20 µM [cytotoxic, single point]
O=c1c2cn[nH]c2nc(SCc2cccc(Br)c2)n1-c1ccc(Cl)cc1 | inconclusive: 31.6 µM [cytotoxic, single point]
Cc1ccn2c(Nc3ccc4c(c3)OCO4)c(-c3ccc(N(C)C)cc3)nc2c1 | inconclusive: 12.6 µM [cytotoxic, partial curve]
Cc1ccc(C)c(CN2CCC(CNC(=O)Nc3ccc(Br)cc3F)CC2)c1 | inconclusive: 20 µM [cytotoxic, single point]
